# Reference: article PMC4336329 (PLoS ONE, 2015)
# The campaign covered roughly 310,000 compounds. About 14,000 (4.5%) showed an effect of 50% or more. Effects have a minus sign here. The list shows a part of the results.
# Biological target: human ether-à-go-go-related gene (hERG) potassium channel (human, UniProt Q12809)
# Assay: primary screen, population patch clamp on CHO cells stably expressing hERG
# 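Also: peak tail current of the secondary pulse compared with the same well before compound.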
# Chain of human ether-à-go-go-related gene (hERG) potassium channel (Q12809 whole entry, looked up): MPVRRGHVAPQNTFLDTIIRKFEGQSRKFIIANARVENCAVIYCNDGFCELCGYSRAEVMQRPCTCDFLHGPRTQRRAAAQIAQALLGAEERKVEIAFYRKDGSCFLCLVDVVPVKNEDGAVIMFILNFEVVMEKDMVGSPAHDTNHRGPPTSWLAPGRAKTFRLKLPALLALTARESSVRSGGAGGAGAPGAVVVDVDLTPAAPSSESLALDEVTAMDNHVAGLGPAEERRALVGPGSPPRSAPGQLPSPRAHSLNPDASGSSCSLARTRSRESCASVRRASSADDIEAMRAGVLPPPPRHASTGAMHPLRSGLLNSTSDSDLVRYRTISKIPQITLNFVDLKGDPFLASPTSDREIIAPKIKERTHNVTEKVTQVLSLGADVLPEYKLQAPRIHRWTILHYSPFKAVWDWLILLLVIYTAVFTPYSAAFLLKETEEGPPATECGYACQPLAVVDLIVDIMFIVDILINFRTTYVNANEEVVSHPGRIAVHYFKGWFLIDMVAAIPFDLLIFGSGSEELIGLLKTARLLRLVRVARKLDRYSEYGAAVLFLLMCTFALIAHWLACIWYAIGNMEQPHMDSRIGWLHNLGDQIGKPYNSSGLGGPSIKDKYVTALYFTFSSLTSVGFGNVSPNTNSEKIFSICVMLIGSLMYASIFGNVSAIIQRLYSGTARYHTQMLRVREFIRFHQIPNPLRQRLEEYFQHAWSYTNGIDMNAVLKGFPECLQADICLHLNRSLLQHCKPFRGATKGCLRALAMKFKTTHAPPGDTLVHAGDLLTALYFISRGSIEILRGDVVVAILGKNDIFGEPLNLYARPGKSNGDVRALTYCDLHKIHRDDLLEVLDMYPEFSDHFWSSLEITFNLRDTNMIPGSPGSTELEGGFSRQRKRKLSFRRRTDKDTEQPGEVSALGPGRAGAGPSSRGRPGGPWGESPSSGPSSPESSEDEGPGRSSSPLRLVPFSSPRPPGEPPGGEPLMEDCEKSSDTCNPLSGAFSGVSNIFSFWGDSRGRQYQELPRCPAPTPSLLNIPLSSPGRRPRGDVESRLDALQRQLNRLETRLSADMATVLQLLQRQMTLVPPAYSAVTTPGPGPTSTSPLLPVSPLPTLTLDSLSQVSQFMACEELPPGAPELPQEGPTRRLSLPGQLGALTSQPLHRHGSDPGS
row,SMILES,"hERG current change (%, negative = inhibition) at 10uM"
1,O=C(O)c1ccc2ccc3ccccc3c2c1,-0.225%
2,CC(=O)Nc1ccc(C(=O)NNC(=O)c2ccc(Cl)cc2)cc1,19.5%
3,Cc1ccc(CN2CCN(/N=C/C=C/c3ccccc3[N+](=O)[O-])CC2)cc1,-21.1%
4,CN(C)C(=O)c1sccc1Oc1ccc(F)cc1[N+](=O)[O-],7.25%
5,O=C(CN1C(=O)c2ccccc2S1(=O)=O)Nc1ccon1,20.4%
6,Cc1ccc(NC(=O)C2CC(=O)n3ncnc3N2)cc1C (stereo not shown),4.79%
7,CCc1nnc(NS(=O)(=O)c2ccc(NC(=O)COc3ccc(Cl)c(C)c3)cc2)s1,14.2%
8,Nn1c(COc2ccccc2F)nnc1SCC(=O)NC1CCCC1,10.3%
9,COc1ccc(CC(=O)Nc2ccc(-c3cn4ccccc4n3)cc2)cc1OC,16.5%
10,O=C1/C(=C2/NCCN2C2CC(=O)N(c3ccccc3)C2=O)CC/C1=C\c1ccccc1 (stereo not shown),-16.5%
11,COc1ccccc1NCC(=O)n1nc(C)cc1C,29.8%
12,CCCNC(=S)NCCN1CCCCC1.O=C(O)C(=O)O,5.71%
13,Cc1nnc(NC(=O)Oc2ccccc2)s1,-13.9%
14,CS(=O)(=O)NCCn1ccc2ccccc21,-14.4%
15,CCNC(=S)N1CCC(NC(=O)C2CCCCC2)CC1,7.4%
16,Cc1cccc(C)c1NC(=O)CNC(=O)c1c(C)nn(-c2ccccc2)c1C,3.65%
17,O=C(c1ccoc1)N1CCC2(CCCN(Cc3ccc(F)c(F)c3)C2)C1 (stereo not shown),-27.1%
18,Cc1c(OCC(=O)N(C)C)ccc2c(-c3ccccc3)cc(=O)oc12,-7.87%
19,CC1CCN(S(=O)(=O)c2ccc(C(=O)Nc3nnc(C4=COCCO4)o3)cc2)CC1,-1.13%
20,Cc1nn(CCC#N)c(NC(=O)c2ccccc2)c1P(=O)(Nc1ccc(Br)cc1)N1CCOCC1 (stereo not shown),20.6%
21,O=C(COc1ncnc2ccc(Br)cc12)NC1CCCC1,2.91%
22,COc1ccc(C(=O)C2CCCN(Cc3cccc(C)n3)C2)c(OC)c1 (stereo not shown),-76.2%

row,SMILES,"hERG current change (%, negative = inhibition) at 10uM"
1,c1ccc2c(c1)nc1n2CCS1,11.3%
2,CC(C)N=C(NS(=O)(=O)c1ccc(Br)cc1)c1ccc(Cl)cc1,4.83%
3,Cc1ccc(-c2c(C(=O)NCc3ccccc3)oc(=O)c3ccccc23)cc1,1.98%
4,O=C(NCCc1nc2ccccc2[nH]1)Nc1ccccc1,-6.39%
5,CC(=O)NC12CC3CC(C1)CC(C(=O)Nc1c(C)n(C)n(-c4ccccc4)c1=O)(C3)C2,8.06%
6,CCOC(=O)c1ccc(N2C(=O)CC(N(Cc3ccc4c(c3)OCO4)C(=O)Nc3ccccc3)C2=O)cc1 (stereo not shown),-3.13%
7,CC(C)c1cc(C(=O)N2CCCC(Nc3ccc(F)cc3)C2)n[nH]1 (stereo not shown),8.32%
8,CSc1ncccc1C(=O)OCn1nnc2ccccc2c1=O,6.19%
9,COc1ccc2c(CC(=O)N3CCN(S(=O)(=O)c4cccs4)CC3)coc2c1,-13.4%
10,CCN1CCCC1CNC(=O)c1c(O)c2c([nH]c1=O)CCCC2 (stereo not shown),-8.7%
11,CCC(C)(C)NC(=O)C1CC(=O)N(CCc2ccc(F)cc2)C1 (stereo not shown),16.7%
12,COC(=O)c1ccc(C(=O)OC)c(NC(=O)CCc2ccc(C)o2)c1,9%
13,CCCNC(=O)CN(c1ccc(F)c(Cl)c1)S(C)(=O)=O,14.4%
14,CCN(CC)C(=O)CSc1nnc(-c2ccccn2)n1Cc1ccccc1,-25.1%
15,Clc1ccc(OCCN2CCCCC2)cc1Cl.O=C(O)C(=O)O,-42.1%
16,COc1cc(/C=C/CO)cc(OC)c1O[C@@H]1O[C@H](CO)[C@@H](O)[C@H](O)[C@H]1O,21.3%
17,CN1C(=O)C(C)(C)c2cc(S(=O)(=O)N3CCC(C(=O)Nc4ccc(Cl)cc4)CC3)ccc21,10%
18,c1ccc2[nH]c(-c3cscn3)nc2c1,10.3%
19,CN(C)S(=O)(=O)c1cccc(C(=O)NCC(C)(C)CNC(=O)c2cccc(S(=O)(=O)N(C)C)c2)c1,-17.4%
20,CCN(C(=O)c1ccco1)C1C2CC3CC(C2)CC1C3 (stereo not shown),-12%
21,O=C(NCCc1ccccc1)c1ccc(NS(=O)(=O)c2ccc3[nH]c(=O)[nH]c3c2)cc1,8.53%
22,CCOCCCNC(=O)C1CCCN1S(=O)(=O)c1ccc(Cl)cc1 (stereo not shown),6.65%

row,SMILES,"hERG current change (%, negative = inhibition) at 10uM"
1,CCN(CC)S(=O)(=O)c1ccc(C(C)NC(=O)C2CCCN2C(=O)c2cccs2)cc1 (stereo not shown),-15.5%
2,COC/C=C/C1=CC2=CC(=O)C(C)(OC(=O)C3CCCC3)C(=O)C2=CO1 (stereo not shown),-1.2%
3,COC(=O)c1ccccc1NC(=O)C1CC(=O)N(C2CCCCC2)C1 (stereo not shown),-16.7%
4,Cc1ccc(Nc2nc(C)cc(C)c2C(N)=O)cc1,6.38%
5,COc1ccccc1NC(=O)CSc1nnc(COc2ccccc2C)o1,-8.37%
6,COc1ccccc1NC(=O)c1ccc(S(=O)(=O)N2CCC(C)CC2)cc1,2.25%
7,CCCCNC(=S)N/N=C/c1ccc(OCC(=O)Nc2c(C)cc(C)cc2C)c(OC)c1,11%
8,O=C(Nc1ccc(F)cc1)NC1(C(=O)NCc2ccco2)CCCCC1,18.4%
9,Cc1ccc2nc3c(c(N)c2c1)CCN3C.O=C(O)C(=O)O,-33.1%
10,Cc1ccc(S(=O)(=O)N2CCN(C(=O)N3CCOCC3)C2c2ccc(N(C)C)cc2)cc1 (stereo not shown),-23.6%
11,CCCCn1c(N)c(N(CCOC)C(=O)c2cc(C)oc2C)c(=O)[nH]c1=O,-8.67%
12,CCC(C)(C)NC(=O)C(c1ccc(C)cc1)N(Cc1ccco1)C(=O)CCC(=O)Nc1nccs1 (stereo not shown),9.32%
13,Cc1oc(S(=O)(=O)N(C)C)cc1C(=O)Nc1ccc(F)cc1,9.85%
14,CC(C)(C)c1ccc(C(=O)/C=C2\NC(=O)CS2)cc1,-9.16%
15,CC1CCN(C(=O)CN(c2ccc3c(c2)OCCO3)S(=O)(=O)c2ccccc2)CC1,-26.6%
16,CC(Sc1nc2nn(-c3ccccc3)c(=O)c-2c2n1CCCCC2)C(N)=O (stereo not shown),-15%
17,COc1cc(CN2CCC(n3nccc3NC(=O)C3CC3)CC2)cc(OC)c1,-66.3%
18,COC(=O)C1=C(c2ccc(Cl)c(C(F)(F)F)c2)C[C@@H]2CC[C@H]1N2C,-21.9%
19,O=C(Nc1nnc(Cc2ccc(F)cc2)s1)Nc1ccccc1F,22.4%
20,COc1cc(/C=C2\CC/C(=C\c3ccc(OCCO)c(OC)c3)C2=O)ccc1OCCO,2.76%
21,CCOc1ccc(-c2n[nH]c(=S)c3ccccc23)cc1,11.8%
22,COc1ccc(S(=O)(=O)NC2CC3CCC2C3)cc1Br (stereo not shown),-12.6%

row,SMILES,"hERG current change (%, negative = inhibition) at 10uM"
1,C/C(=N\Nc1nc(N)cc(Cl)n1)c1cccc(N)c1,-32.5%
2,CC1CCCCC1NC(=O)C1CCN(c2c3c(nc4ncnn24)CCC3)CC1 (stereo not shown),4.49%
3,CC1CCN(C(=O)c2[nH]cnc2C(=O)N[C@@H](C)C(=O)OC(C)(C)C)CC1,-2.18%
4,COc1ccc(CNC(=O)c2ccc(NS(=O)(=O)c3c(C)noc3C)cc2)cc1,-5.69%
5,O=c1c2ccccc2nc(SCc2ccc(F)cc2Cl)n1CCCN1CCOCC1,-0.00712%
6,O=C(Cc1ccccc1)Nc1nnc(-c2ccccc2)o1,4.55%
7,CCc1cccc(OCC2Cn3c(nc4c3c(=O)[nH]c(=O)n4C)O2)c1 (stereo not shown),12.2%
8,O=c1c2ccccc2nnn1COc1ccc(F)cc1Cl,-0.122%
9,O=C1NC(=O)C(=Cc2ccsc2)C(=O)N1,7.9%
10,Cc1cccc(Cn2c(CN3CCN(Cc4ccccc4)CC3)nc3c2c(=O)[nH]c(=O)n3C)c1,-64.9%
11,CCC(=O)Nc1cc2nn(-c3ccc(C)cc3)nc2cc1C,19.4%
12,S=c1[nH]nc(Nc2ccc(Cl)cc2)s1,27.1%
13,Cc1ccc(O)c(-c2cc(C(F)(F)F)[nH]n2)c1,-0.292%
14,Cc1ccccc1Nc1nnc(SCc2cc([N+](=O)[O-])cc3c2OCOC3)s1,-17%
15,CCOC(=O)CSc1nc2c(sc(=S)n2-c2ccccc2OC)c(=O)n1Cc1ccco1,-7.11%
16,CC(C)=CCc1c(-c2ccc(O)cc2O)oc2cc3c(c(O)c2c1=O)C=CC(C)(C)O3,23.7%
17,CCC(=O)c1ccc(OCc2ccc(C(=O)c3ccccc3)cc2)cc1,11.6%
18,COc1ccccc1CC(=O)Nc1ccc(F)cc1F,1.18%
19,CC(C)=CC(=O)NCc1c(Cl)cccc1-n1cccc1,29.5%
20,CCCCN1C(=O)c2ccc(C(=O)Nc3cccc(C)c3C)cc2C1=O,17.2%
21,Cc1cccn2c(=O)c3cc(S(=O)(=O)c4ccc(Br)cc4)c(=N)n(C4CCCC4)c3nc12,9.92%
22,CC1(C)Cc2cccc(C(=O)NCc3ccco3)c2O1,15.3%
